From publication PMC10540217 (2023) come the findings set out here.

In one experiment the target is T1, USP2 (Homo sapiens (Human), UniProt O75604).
T1 chain: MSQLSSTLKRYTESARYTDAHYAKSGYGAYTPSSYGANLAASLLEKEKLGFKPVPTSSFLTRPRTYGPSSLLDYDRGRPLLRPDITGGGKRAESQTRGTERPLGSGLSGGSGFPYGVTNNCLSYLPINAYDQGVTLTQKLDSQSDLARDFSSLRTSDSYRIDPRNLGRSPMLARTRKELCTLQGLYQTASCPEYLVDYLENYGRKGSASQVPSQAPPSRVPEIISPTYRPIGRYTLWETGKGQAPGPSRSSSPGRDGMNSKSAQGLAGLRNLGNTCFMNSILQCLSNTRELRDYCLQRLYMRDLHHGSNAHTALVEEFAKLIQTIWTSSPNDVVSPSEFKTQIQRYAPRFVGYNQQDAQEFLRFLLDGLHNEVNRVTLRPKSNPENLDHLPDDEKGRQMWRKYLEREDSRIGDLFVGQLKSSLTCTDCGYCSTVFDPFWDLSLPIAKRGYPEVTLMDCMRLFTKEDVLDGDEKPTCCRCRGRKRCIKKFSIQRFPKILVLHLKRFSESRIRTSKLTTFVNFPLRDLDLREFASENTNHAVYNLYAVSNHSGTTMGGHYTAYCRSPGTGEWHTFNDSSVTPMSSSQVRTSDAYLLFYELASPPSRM
The experiment in a line: covalent activity-based probe reaction, gel; readout is covalent reaction with C-terminal propargylamine warhead on SUMO.

A further experiment deals with T2, USPL1 catalytic domain (Homo sapiens (Human), UniProt Q5W0Q7).
T2 chain: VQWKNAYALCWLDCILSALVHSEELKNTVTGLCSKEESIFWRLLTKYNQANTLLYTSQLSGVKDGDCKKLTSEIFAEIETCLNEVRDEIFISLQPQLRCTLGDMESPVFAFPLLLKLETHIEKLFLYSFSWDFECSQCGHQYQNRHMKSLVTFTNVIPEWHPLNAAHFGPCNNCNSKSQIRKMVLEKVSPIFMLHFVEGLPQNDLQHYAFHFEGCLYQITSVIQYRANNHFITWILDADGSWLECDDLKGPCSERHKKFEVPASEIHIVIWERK
The experiment in a line: covalent activity-based probe SDS-PAGE shift, thermal shift, crystal structure; covalent reaction through C-terminal propargylamine warhead on SUMO with the USPL1 catalytic cysteine.

In another experiment the target is T3, SENP1 (Homo sapiens (Human), UniProt Q9P0U3).
T3 chain: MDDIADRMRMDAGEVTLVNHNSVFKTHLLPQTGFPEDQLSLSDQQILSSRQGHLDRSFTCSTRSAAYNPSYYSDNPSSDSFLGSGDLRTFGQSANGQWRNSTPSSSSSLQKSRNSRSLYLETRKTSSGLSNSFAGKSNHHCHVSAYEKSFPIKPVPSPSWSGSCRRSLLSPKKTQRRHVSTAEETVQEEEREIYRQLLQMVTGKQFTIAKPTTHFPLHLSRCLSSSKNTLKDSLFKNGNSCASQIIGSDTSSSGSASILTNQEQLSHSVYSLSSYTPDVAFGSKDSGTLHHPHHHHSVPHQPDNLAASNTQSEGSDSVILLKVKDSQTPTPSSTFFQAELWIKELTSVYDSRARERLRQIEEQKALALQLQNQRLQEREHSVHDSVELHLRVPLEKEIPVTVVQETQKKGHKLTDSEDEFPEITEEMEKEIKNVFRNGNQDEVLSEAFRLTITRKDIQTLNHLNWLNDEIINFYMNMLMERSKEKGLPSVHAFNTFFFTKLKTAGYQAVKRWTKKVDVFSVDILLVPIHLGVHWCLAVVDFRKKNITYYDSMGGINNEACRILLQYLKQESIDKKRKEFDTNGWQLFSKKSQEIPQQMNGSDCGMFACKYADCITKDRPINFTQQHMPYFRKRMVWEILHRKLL
The experiment in a line: covalent activity-based probe reaction, gel; covalent reaction through C-terminal propargylamine warhead on SUMO.

B1: ΔN-SUMO2/3-PA probe (protein)
chain: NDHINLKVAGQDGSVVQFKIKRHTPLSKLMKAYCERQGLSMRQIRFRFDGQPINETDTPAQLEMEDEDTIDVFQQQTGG
modifications: propargylamine warhead at the C-terminus
Consider B1, for which the binding result with USP2 was “no binding”; with USPL1 catalytic domain, “binds”; in the experiment with SENP1, “binds”.
